The structures appear in SMILES notation. The campaign covered roughly 52,000 compounds. About 4,300 (8.3%) were called active. Rule as the data show it: active = survival mostly below about 52% (no sharp cut-off); inactive = mostly above about 56%. This is one part of the list.

In the experiment the test system is DeltatarO mutant. Description: S. aureus survival, RN4220 and DeltatarO strains – OD600, teichoic acid synthesis inhibitors, primary screen (AID 463173). The following applies: S. aureus RN4220 wild type/DeltatarO growth, OD600, 18 h, stronger effect = lower value, screened at 18.75 µg/mL (by protocol).
With `COC(=O)c1cc(S(=O)(=O)NCC2CCN(Cc3cccc(F)c3)CC2)cn1C`, the survival is inactive: 122%.

On to `Cc1ccc2nc(Cl)c3cc(C(=O)N4CCCCC4)sc3c2c1`, for which the survival was active: -8%.

On to `Cc1cc(C)c(Cn2c(=O)n(CCCC(=O)NCc3ccc4c(c3)OCO4)c(=O)c3sccc32)c(C)c1`, for which the survival was inactive: 104%.

As for `CCOC(=O)c1c(C)oc2nc(C)nc(NCCCN3CCN(c4cc(C)ccc4C)CC3)c12`, the survival was inactive: 82%.

`CC(C)c1ccc(Nc2c(-c3ccccn3)nc3ccccn23)cc1`: the survival is active: -4%.

Consider `COc1ccc(-c2nc(CSCC(=O)NCc3ccccc3Cl)c(C)o2)cc1OC`, for which the survival is active: 46%.

Turning to `O=C(NCCc1ccc(Cl)cc1)C1CCN(S(=O)(=O)c2ccc3[nH]ccc3c2)CC1`, the survival is inactive: 94%.

Consider `COc1ccc(CCNC(=O)C(=O)NCC(c2cccs2)S(=O)(=O)c2ccc(F)cc2)cc1` (centres undefined), for which the survival was inactive: 90%.

Consider `COc1ccc(-c2noc(CNC(=O)COc3cccc(C)c3C)n2)cc1`, for which the survival is inactive: 51%.

With `Cc1cccc(NC(=O)c2cc3c(=O)n(Cc4cccnc4)ccc3nc2C)c1`, the survival is active: 0%.

With `N#Cc1cc2c(=O)n3ccccc3nc2n(-c2nnc(SCc3ccccc3Cl)s2)c1=O`, the survival is inactive: 84%.

With `CCC(Sc1nc2n[nH]c(C)c2c(=N)n1-c1ccccc1Cl)C(=O)N(CC)CC` (centres undefined), the survival was inactive: 126%.

In the case of `O=C(NCCO)c1ccc2nc(-c3ccco3)c(-c3ccco3)nc2c1`, the survival was inactive: 87%.

Consider `CC1Cn2c(C(=O)NCc3ccccc3Cl)cc3cccc(c32)S1` (centres undefined), for which the survival was inactive: 96%.

For the compound `COc1ccc(NC(=O)CCn2cnc3onc(-c4ccc(F)cc4)c3c2=O)cc1OC`, the survival is inactive: 119%.

On to `CCCCCN1C(C(=O)c2ccccc2)=C(OC(=O)CC)c2ccccc2S1(=O)=O`, for which the survival was active: -4%.

With `COc1cc(OC)c(NC(=O)CCc2c(C)nc3c4c(C)cc(C)nc4nn3c2C)cc1Cl`, the survival was inactive: 72%.

On to `CC(NC(=O)c1ccc2c(c1)sc1nc(-c3ccc(F)cc3)cn12)C12CC3CC(CC(C3)C1)C2` (centres undefined), for which the survival was inactive: 96%.

Take `FC(F)(F)c1cccc(Nc2c3c(nc4ccc(Cl)cc24)CCC3)c1`: the survival is active: 9%.

As to `COc1cccc(/C=C/c2nc(C#N)c(N3CCN(C)CC3)o2)c1`, the survival was inactive: 83%.

`COc1cc(NC(=O)C2CCN(S(=O)(=O)c3c(C)noc3/C=C/c3ccccc3F)CC2)cc(OC)c1OC`: the survival was inactive: 74%.

Consider `Cc1ccc(CCNC(=O)CCCc2nnc3n(C)c(=O)c4sccc4n23)cc1`, for which the survival is inactive: 86%.

Regarding `COc1cccc(CSc2nc3n(n2)C(CC(C)C)C(C(=O)Nc2ccccc2C)=C(C)N3)c1` (centres undefined), the survival is inactive: 87%.

For `COc1ccc(C(=O)Nc2cccc(C(=O)OCc3cc(=O)n4c5c(sc4n3)CCCC5)c2)cc1`, the survival was inactive: 64%.

Regarding `COc1ccccc1-n1c(=O)n(C)c2c(C(N)=O)nc(-c3cccc(OC)c3OC)nc21`, the survival is inactive: 83%.

In the case of `CCOC(=O)Cn1c(=O)n(CC2CCCO2)c2nc(-c3cc(OC)ccc3OC)nc(C(N)=O)c21` (centres undefined), the survival was inactive: 109%.

In the case of `COc1ccc(CCNC(=O)CCc2c(C)nc3cc(-c4cccc(F)c4)nn3c2C)cc1OC`, the survival is inactive: 132%.

As to `O=C(NCC(c1cccs1)S(=O)(=O)c1cccs1)c1c(F)cccc1F` (centres undefined), the survival was inactive: 72%.

Take `CCCOc1ccc(C(=O)N(Cc2ccco2)Cc2ccco2)cc1`: the survival is inactive: 55%.

With `CC(C)c1nn2c(=O)cc(COC(=O)c3ccc(NC(=O)c4cccs4)cc3)nc2s1`, the survival is inactive: 90%.

In the case of `COc1ccc(OC(=O)c2nc(SCc3ccccc3C)ncc2Cl)cc1`, the survival was inactive: 66%.

Turning to `Cc1ccccc1OCC(=O)Nc1ccccc1OCc1cc(=O)n2ccccc2n1`, the survival is inactive: 85%.

`COc1ccc(OC)c(NC(=O)c2c(NCc3ccc(OC)c(OC)c3)sc3c2CCC(C)C3)c1` (centres undefined): the survival was inactive: 77%.

Take `O=C(C1CCCCC1)N(Cc1cccnc1)c1nc2c(F)cc(F)cc2s1`: the survival is inactive: 88%.

Take `CCN1CCOC(=O)C1CC(=O)Nc1ccc(C)c(Cl)c1` (centres undefined): the survival is inactive: 34%.

For the compound `Cn1c(=O)c2c(n(C)c1=O)=NC1(CCCCC1)N=2`, the survival was inactive: 95%.

Consider `COc1ccc(CNC(=O)CCC2N=C3c4ccccc4N=C(SCc4ccc(F)cc4)N3C2=O)cc1` (centres undefined), for which the survival was inactive: 83%.

On to `Nc1c(C(=O)Nc2cccc(F)c2)sc2nc(-c3cccs3)ccc12`, for which the survival was inactive: 69%.

In the case of `Cc1ccccc1-c1nc2scc(CCNC(=O)C(=O)Nc3ccc(F)cc3F)n2n1`, the survival is active: -2%.

For `Cc1cc(C)nc(NS(=O)(=O)c2ccc(NC(=O)c3cc(=O)c4ccc(C)c(C)c4o3)cc2)n1`, the survival was inactive: 62%.

On to `CCCc1c(C)nc(N)c(C#N)c1-c1ccc(OC)c(OC)c1`, for which the survival is inactive: 71%.

As for `CC(=O)N(C(C)=O)c1ccc(C)cc1`, the survival was inactive: 102%.

Take `Cc1ccc2nc(NC(=O)c3ccc(S(=O)(=O)N4CCCc5ccccc54)cc3)sc2c1`: the survival is inactive: 144%.

For the compound `CCN(CC)/C(=N/OCc1ccc(Cl)cc1Cl)c1nonc1N`, the survival was inactive: 103%.

With `COc1ccc(CC(=O)Nc2ccc3nc(Nc4cccc(Cl)c4)cc(C)c3c2)cc1`, the survival is inactive: 98%.

Consider `CCOC(=O)C1CCCN(c2c(C(=O)c3ccc(C)cc3)cnc3ccc(OCC)cc23)C1` (centres undefined), for which the survival is active: 10%.

Take `Cc1ccc(Nc2c(-c3ccc(N4CCOCC4)cc3)nc3c(C)cccn23)cc1`: the survival was inactive: 56%.

For `Nc1c(C(=O)NCCc2ccccc2)nnn1CC(=O)Nc1ccc(Cl)cc1`, the survival is inactive: 64%.

Regarding `CCCn1c(CCC(=O)Nc2cccc(C)c2C)nc2cccnc21`, the survival is inactive: 125%.

As to `O=C(CSc1nc2c([nH]c3ccccc32)c(=O)n1-c1ccccc1)c1ccc(Cl)cc1`, the survival was inactive: 92%.

For `C=Cc1ccc(Cn2c(C(=O)O)c(CNCCc3ccccc3)c3ccc(C)cc32)cc1`, the survival is inactive: 92%.

In the case of `COc1cc(NS(=O)(=O)c2ccc3[nH]c4c(c3c2)CCCC4)cc(OC)c1OC`, the survival is inactive: 109%.

Take `Cc1ccc(Cl)cc1N1CCN(C(=O)c2ccc(CS(=O)(=O)c3ccc(Br)cc3)o2)CC1`: the survival is inactive: 127%.

On to `Cc1oc2ncn(C)c(=O)c2c1C(=O)N(Cc1ccccc1)C(C)C`, for which the survival is inactive: 82%.

As for `CCOC(=O)c1c(C)[nH]c(CCC(=O)NCc2cccc(OC)c2)c1C`, the survival was inactive: 89%.

Turning to `Cc1ccc(Cl)cc1N1CCN(C(=O)CCn2c(=O)c3cccn3c3cccnc32)CC1`, the survival was active: 39%.

On to `COCCn1c(SCC(=O)Nc2cccc(C)c2C)nc2c(oc3ccccc32)c1=O`, for which the survival was inactive: 106%.

On to `CC1(c2ccc(Cl)cc2Cl)OCC(Cn2cncn2)O1` (centres undefined), for which the survival is inactive: 83%.

For the compound `COc1ccc(CCNC(=O)c2cc3c(-c4ccc(OC)c(OC)c4)nn(C)c3s2)cc1OC`, the survival is inactive: 91%.

For `Cc1cc(-c2ccc(S(=O)(=O)Nc3cc(Cl)ccc3C)s2)on1`, the survival is inactive: 126%.

As for `COc1cc(NC(=O)CN2C(=O)C(c3ccc(Cl)cc3)=NC23CCCCC3)cc(OC)c1`, the survival was inactive: 70%.

`CC(C)c1ccc(C2c3c(oc4ccc(Cl)cc4c3=O)C(=O)N2CCCN2CCOCC2)cc1` (centres undefined): the survival was inactive: 70%.

As to `Cc1cc2c(cc3c(SCc4cccc(F)c4)nnc(C)n32)o1`, the survival was inactive: 68%.

Regarding `Cc1cccc(C(=O)N2CCC(N3CCN(Cc4ccc(F)cc4)C(=O)C3=O)CC2)c1`, the survival is inactive: 94%.

Consider `Cc1ccc(O)c(NC(=O)c2cc(-c3ccc(F)cc3)on2)c1`, for which the survival was inactive: 81%.

`O=c1c2c3c(sc2n(Cc2ccccc2F)c(=O)n1-c1ccc(Cl)cc1)CCCC3`: the survival was inactive: 101%.

As to `Cc1ccccc1CSCCNC(=O)C1CCN(S(=O)(=O)Cc2ccccc2)CC1`, the survival was inactive: 101%.

As to `COC(=O)c1ccc(Cl)cc1NC(=O)NC(C)c1c(-n2cccc2)sc(C)c1C` (centres undefined), the survival is active: 19%.

For `COc1ccc(NC(=O)CCc2nc3cccnc3n2-c2ccccc2)cc1Cl`, the survival is inactive: 56%.

`Cc1oc2ccc(O)c(CN3CCCCC3C)c2c1C(=O)Nc1ccccc1` (centres undefined): the survival was inactive: 88%.

In the case of `O=C(CCc1ccccc1)N1CCc2c([nH]c3ccccc23)C1c1ccc(Cl)cc1` (centres undefined), the survival is inactive: 71%.

Consider `Cc1cccc(CC(=O)NC2CC(=O)N(c3ccccc3)C2)c1` (centres undefined), for which the survival was active: -5%.

Consider `COc1ccc(C(CNC(=O)Cc2ccc(Cl)cc2)N2CCOCC2)cc1` (centres undefined), for which the survival was inactive: 75%.

`O=C(CSc1nc(=O)n(CCN2CCOCC2)c2c1CCC2)Nc1cccc(Cl)c1`: the survival was inactive: 95%.

Take `O=C(CC(c1cccs1)N1Cc2ccccc2C1=O)Nc1ccc(F)cc1F` (centres undefined): the survival was inactive: 55%.

For `Cn1cc(CCCC(=O)NCc2cccc(Br)c2)c2ccccc21`, the survival is inactive: 66%.

In the case of `CCc1nc2ccc(C(=O)NCc3ccccc3C)cc2nc1CC`, the survival is inactive: 85%.

As to `COc1ccc(-n2cc(-c3ccccc3)c3c(N4CCCC(C)C4)ncnc32)cc1` (centres undefined), the survival was inactive: 98%.

`O=c1c(NCc2cccs2)nccn1-c1ccccc1`: the survival was inactive: 68%.

Take `COc1ccc(-c2cccc(NS(=O)(=O)c3cc(C(F)(F)F)ccc3Cl)c2)nn1`: the survival is inactive: 72%.

As to `O=C(CS(=O)(=O)c1cccc2nsnc12)NCc1ccccc1Cl`, the survival is inactive: 116%.

Turning to `Cc1ccc(CN2c3ccccc3-c3nc(SCC(=O)NCc4ccccc4)ncc3S2(=O)=O)cc1`, the survival was active: 17%.

Regarding `O=C(COc1ccccc1F)Nc1nnc(SCc2cc(=O)n3ccccc3n2)s1`, the survival was inactive: 84%.

`CCOC(=O)c1cc2c(=O)n3ccccc3nc2n(CC2CCCO2)c1=NC(=O)c1cccc(C)c1` (centres undefined): the survival was active: 29%.

As for `Cc1ccccc1Cn1nnc2sc3c(c2c1=O)CCCC3`, the survival was active: -1%.

For the compound `CCOC(=O)c1c(NC(=O)Nc2ccc(F)cc2)sc(C(=O)N(C)C)c1C`, the survival is inactive: 86%.

Consider `COc1ccc(CCNC(=O)c2ccc3c(c2)N(Cc2ccccc2Cl)C(=O)c2ccccc2S3)cc1OC`, for which the survival was inactive: 78%.

As to `CCn1c(C)nc2cc(Cl)ccc21`, the survival is inactive: 93%.

As for `CCC(=O)C1=C(c2ccccc2)N(C(=O)CC)n2c(nnc2-c2ccccc2)S1`, the survival is active: -5%.

For the origin of these results see PubChem BioAssay AID463173 (ICCB-Longwood Screening Facility, Harvard Medical School, 2010).
